Measurements published in ChEMBL document CHEMBL4888484, “Replenishing the malaria drug discovery pipeline: Screening and hit evaluation of the MMV Hit Generation Library 1 (HGL1) against asexual blood stage Plasmodium falciparum ,using a nano luciferase reporter read-out” (2022).
Several values for one entry are separate records, joined by “and”; a condition that tells them apart may be missing. Identical values can stand only once. The whole screen tested about 4,800 compounds, of which about 420 (8.8%) showed an effect of 50% or more. Some of the results follow.

Test system: Plasmodium falciparum
Experiment: Confirmatory screen in NF54 nanoGlo assay, in single point, at 2uM, 72h
Format: functional, Erythrocyte
Conditions: timepoint 72 hour

Compound: COc1ccc(C(=O)N2CCCn3cc(-c4ccccc4F)nc32)cn1
- % Inhibition: 1%

Compound: CNC(=O)c1cc(N2CCN(c3ncc(C(F)(F)F)cc3Cl)CC2)ccc1NC(=O)c1ccccc1Cl
- % Inhibition: 7%

Compound: Cn1ncnc1CNc1cccc(Cl)c1Br
- % Inhibition: 5%

Compound: COCc1cc(F)ccc1NC(=O)NC1CCN(c2cc(C)nc(C)n2)CC1
- % Inhibition: -5%

Compound: Cc1ccc(C2c3ccsc3CCN2CCC(=O)N2CCN(C(=O)Cc3cccs3)C(C)C2)cc1 (configuration not stated)
- % Inhibition: 37%

Compound: O=C(Nc1ccccc1N1CCOCC1)[C@@H]1CC=CCC1
- % Inhibition: -10%

Compound: Cc1ccn2c(CN3CCN([C@H]4CCN(Cc5ccccc5)C4)CC3)c(C)nc2c1
- % Inhibition: 8%

Compound: COc1cccc(-c2nc(C)c(C(=O)Nc3n[nH]c(CC(C)C)n3)s2)c1
- % Inhibition (2 µM): 78% and 70%

Compound: O=C(NC1=NN2C(=NC(c3ccc(Cl)cc3)=C[C@H]2c2ccc(F)cc2)N1)c1ccc(Cl)cc1
- % Inhibition: 32%

Compound: CS(=O)(=O)N1CC[C@H](CC(=O)N2CCN(c3ccc(F)cc3)CC2)C1
- % Inhibition: -14%

Compound: COc1ccc(C(C)(C)C(=O)N(C)Cc2cn(C)nc2C(C)C)cc1
- % Inhibition: -2%

Compound: Cc1cc(NCc2noc(-c3ccsc3)n2)ccc1C(N)=O
- % Inhibition: 2%

Compound: N#Cc1ccc2c(c1)N(Cc1ccccc1F)C(=O)[C@@H]1CCCN21
- % Inhibition: -7%

Compound: Cc1cc(Cn2cc(C(c3ccccc3)c3ccccc3)nn2)no1
- % Inhibition: -3%

Compound: Cc1ccc(CNC(=O)[C@@H](C)C2CCOCC2)cc1C
- % Inhibition: -8%

Compound: CCOCc1nc(-c2ccc(=O)n(C)c2)no1
- % Inhibition: -1%

Compound: CC1CN(CCCNC(=O)Cc2c[nH]c3ccc(F)cc23)CC(C)O1 (configuration not stated)
- % Inhibition: -1%

Compound: CCc1c([C@H](C)S(=O)(=O)c2ccccc2)[nH]c(=O)n1C(C)(C)C
- % Inhibition: -20%

Compound: O=C(c1nccnc1-c1nc2ccccc2s1)N1CCc2sccc2C1
- % Inhibition: -10%

Compound: Cc1ccccc1Nc1c(-c2c[nH]c3ccccc23)nc2ncccn12
- % Inhibition: 1%

Compound: CN([C@H]1CCc2nn(CC3CC3)c(=O)n2CC1)S(=O)(=O)c1ccccc1C(F)(F)F
- % Inhibition: -8%

Compound: CN(CC(F)(F)F)C(=O)CNC(=O)c1cc(F)cc(Cl)c1O
- % Inhibition: -2%

Compound: COc1cc(C=C(C(=O)Nc2ccccc2F)C(=O)Nc2ccccc2F)ccc1OCC(=O)Nc1cccc(C(F)(F)F)c1
- % Inhibition: -13%

Compound: CS(=O)(=O)N(CCCC(=O)N1CC(=O)Nc2ccccc21)c1cc(Cl)ccc1Cl
- % Inhibition: 5%

Compound: COc1ccc2[nH]c3c(c2c1)CC(C(=O)O)NC3c1ccc(OC)c(CN2CCN(c3ccccc3F)CC2)c1 (configuration not stated)
- % Inhibition: 76%

Compound: CC1COCCC1NCc1ncn(Cc2cccc(F)c2)n1 (configuration not stated)
- % Inhibition: -4%

Compound: Cc1cccc(NC(=O)c2c(C)sc3ncnc(N4CCCCC4)c23)c1C
- % Inhibition: 10%

Compound: Cc1noc2c1N=C(c1ccc(F)cc1)C[C@@H](c1ccc(F)cc1)C2
- % Inhibition: 1%

Compound: O=C(NC1CC1)N[C@H]1CCN(C(=O)C(C2CCC2)C2CCC2)C1
- % Inhibition: -2%

Compound: COc1ccc(CCn2cc(C(N)=O)c(-c3ccccc3)n2)cc1
- % Inhibition: -12%

Compound: Cc1nn(C)cc1[C@@H]1CC(=O)Nc2c1cnn2C(C)(C)C
- % Inhibition: -14%

Compound: O=C(C[C@H]1CCC(=O)N(Cc2ccccc2)CC1)NC1CCN(Cc2ccccc2)CC1
- % Inhibition: -1%

Compound: O=C(C[C@@H]1NC(=O)c2ccccc2NC1=O)NCc1ccc(Cl)cc1Cl
- % Inhibition: -11%

Compound: CCCN(C(=O)c1nccnc1N)C1CC(OCC)C12CCCC2 (configuration not stated)
- % Inhibition: -3%

Compound: CCOc1ccc(-[n+]2cc(-c3ccccc3)n3c2CCC3)cc1
- % Inhibition: 80%

Compound: O=C1CCc2cc(N[C@@H](C(=O)N3CCCC3)c3ccccc3)ccc2N1
- % Inhibition: -1%

Compound: COC(=O)c1cc(NC(=O)N2CCO[C@H](C(=O)OC)C2)c(F)cc1F
- % Inhibition: -2%

Compound: Cc1cc(CNC(=O)c2csc(=O)[nH]2)n(C)n1
- % Inhibition: 9%

Compound: Cc1ccc(-n2nnnc2-c2cnc3cc4c(cc3c2C)OCO4)cc1
- % Inhibition: -17%

Compound: CC[C@@](C)(C(=O)NC1CCCC1)N(Cc1ccco1)C(=O)c1ccc2c(c1)OCO2
- % Inhibition: -12%

Compound: COc1ccc(NC(=O)C2=Cc3cc(Cl)cc(OC)c3OC=C2)cc1
- % Inhibition: 4%

Compound: COc1ccc(NC(=O)Cn2cnc3nc(N4CCOCC4)ncc3c2=O)cc1
- % Inhibition: 6%

Compound: COc1ccc(CC[C@](C)(O)c2cc(C(N)=O)no2)cc1
- % Inhibition: -9%

Compound: Cc1cc(F)c(C(=O)OCc2ccc3[nH]nnc3c2)cc1F
- % Inhibition: -2%

Compound: CN(C)c1nc(N)cc(-c2cccc3cccnc23)n1
- % Inhibition: 44%

Compound: FC(F)(F)c1cnc(N2CCOC3(CCOCC3)CC2)s1
- % Inhibition: -2%

Compound: CC[C@H]1c2cccn2CCN1C(=O)CCc1cscn1
- % Inhibition: -19%

Compound: Cc1c(CCO)c(=O)n(C)n1C(=O)c1ccc(F)cc1
- % Inhibition: 2%

Compound: CC(C)(C)OC(=O)N1CCC(c2c(C(=O)Nc3ccc(Cl)cc3Cl)cnn2-c2cccc(F)c2)CC1
- % Inhibition: 2%

Compound: CN(C(=O)[C@@H]1CCCN1C(=O)C1CCCC1)C1CCN(c2cnccn2)CC1
- % Inhibition: -8%

Compound: Cc1nc2nc(N3CCCCC3)sc2c(=O)[nH]1
- % Inhibition: -1%

Compound: Cc1noc(-c2cccc(F)c2)c1C(=O)NCCCN(C)c1ccccc1
- % Inhibition: -10%

Compound: COCCN(Cc1c(-c2ccccc2)noc1N1CCOCC1)C(=O)C1CCCC1
- % Inhibition: -3%

Compound: Cc1cc(C)cc(OCC(=O)NCCCN(C)C)c1
- % Inhibition: -10%

Compound: COc1ccc(-c2onc(C)c2C(=O)NCCOc2ccccc2)cc1
- % Inhibition: -7%

Compound: Cn1cc(N)c(Oc2ccc(F)cc2F)n1
- % Inhibition: 2%

Compound: Nc1nonc1C(=O)N1CCCN(S(=O)(=O)c2cccs2)CC1
- % Inhibition: 0%

Compound: Cc1cc(NC[C@H](O)c2cnn(C)c2)ncc1Br
- % Inhibition: 9%

Compound: CCOc1c(Br)cc(/C=C(/NC(C)=O)C(=O)O)cc1Br
- % Inhibition: 4%

Compound: CN(C)c1ccc(C(=O)N2CC[C@H]3NC(=O)N(Cc4ccccc4)C(=O)[C@H]32)cc1
- % Inhibition: -9%

Compound: c1ccc2oc(-c3ccnc4nncn34)cc2c1
- % Inhibition: -7%

Compound: CCCc1cc(C(=O)N2CCCCCC2)cs1
- % Inhibition: -10%

Compound: CCc1ccc(CS(=O)(=O)NC(=O)c2cn3ccnc3s2)cc1
- % Inhibition: 6%

Compound: CC(C)NC(=O)N1C[C@H]2CCCC(=O)N(Cc3cccc(F)c3)[C@H]2C1
- % Inhibition: 7%

Compound: COc1ccc(-c2nn3c([C@H]4CCCN(S(C)(=O)=O)C4)nnc3s2)c(OC)c1
- % Inhibition: -6%

Compound: CCc1nnc2cc(N3CCN(C(=O)c4ccc(OC)cc4)CC3)cnn12
- % Inhibition: 0%

Compound: COc1ccc(-c2cc(C(=O)N[C@H]3CCN(c4ccc(=O)n(C)n4)C3)c(C)n2C)cc1
- % Inhibition: 62%

Compound: CCn1c(=O)c(CCC(=O)Nc2cccc(C)c2C)nc2c(C)nn(-c3ccc(C)cc3)c21
- % Inhibition: 19%

Compound: COc1ccc(NC(=O)CC(C)(C)CC(=O)O)cc1
- % Inhibition: 2%

Compound: O=C(N[C@@H](N1CCCCC1)C(Cl)(Cl)Cl)c1ccc(Cl)cc1
- % Inhibition: -5%

Compound: COC(=O)c1ccc(N(C)CC(=O)Nc2cccc(C)c2C)nn1
- % Inhibition: -3%

Compound: Cc1nnc(-c2ccccc2NC(=O)CCC2CCC(C)O2)o1 (configuration not stated)
- % Inhibition: -21%

Compound: O=C(c1cc(-c2ccccc2Cl)nc2ccccc12)n1nnc2ccccc21
- % Inhibition: -5%

Compound: COc1cc(C(=O)NC(C)(C)c2c(C)noc2C)on1
- % Inhibition: -2%

Compound: CCNC(=O)C(=O)NCc1ccc(OC)cc1
- % Inhibition: -17%

Compound: O=C(CN1CCN(Cc2cccc(Cl)c2)C1=O)NC1CC1
- % Inhibition: -4%

Compound: COc1ccc(-[n+]2c(-c3ccccc3)cn3c2CCC3)cc1
- % Inhibition: 77%

Compound: CC1CCC(N2C[C@@H](C(=O)OCC(C)(C)C)CC2=O)CC1 (some centres not stated)
- % Inhibition: -1%

Compound: CCc1nn2c(c1-c1ccc(C)cc1)NC(=O)C[C@H]2C(=O)O
- % Inhibition: 2%

Compound: O=C(CN1CCC[C@H]1C1CCCC1)NCC1CCCCC1
- % Inhibition: 27%

Compound: CCOC(=O)[C@@H](NC(=O)Nc1ccccc1C(F)(F)F)C(F)(F)F
- % Inhibition: -1%

Compound: Cc1nn(CCOc2ccccc2)c(=O)n1-c1ccc(C(C)C)cc1
- % Inhibition: 10%

Compound: COCCN(CC(N)=O)CC(=O)NCc1ccccc1F
- % Inhibition: 1%

Compound: CCN1c2cc(C(=O)N3CCCCC3)ccc2C(=O)N2CCCCC[C@H]21
- % Inhibition: -6%

Compound: C[C@H](NC(=O)c1cc(C2CC2)[nH]n1)c1nccs1
- % Inhibition: -11%

Compound: CCN(CCO)S(=O)(=O)c1ccc2c(c1)CCO2
- % Inhibition: -7%

Compound: O=C(NCc1cc(F)cc(F)c1)c1csc(C(=O)N2CCCC2)n1
- % Inhibition: -8%

Compound: Cc1cc(N(C)CCC2CC2)nc([C@H](C)N(C)CCC2CC2)n1
- % Inhibition: 52%

Compound: COC(C)(C)c1nc(Cn2cnc3ccccc32)no1
- % Inhibition: 0%

Compound: O=C1OC(c2ccccc2)=NC1(Cc1ccc(Cl)cc1)Cc1ccc(Cl)cc1
- % Inhibition: -4%

Compound: CN(C)c1ccc(NN=C2N=NN=N2)cc1
- % Inhibition: -11%

Compound: COc1cc(NC(=O)CN2C(=O)N[C@](C)(c3ccc4c(c3)OCCO4)C2=O)c(OC)cc1Cl
- % Inhibition: 2%

Compound: Cn1cccc1C(=O)NCCNC(=O)[C@@H]1CCO1
- % Inhibition: 4%

Compound: Cn1cc(CCCNc2ccc(F)cn2)cn1
- % Inhibition: 2%

Compound: O=C(C[C@@H]1C=CCC1)Nc1nc(-c2ccc(Cl)cc2)cs1
- % Inhibition: 2%

Compound: NC(=O)[C@@H]1CCCN1C(=O)c1ccnc(OC2CCCCC2)c1
- % Inhibition: -5%

Compound: COc1ccc(-c2cc3nn(CC(=O)NCCC(C)C)c(=O)n3c(C)n2)cc1
- % Inhibition: -12%

Compound: O=C1NC(c2ccccc2)=NC12CCN(Cc1c(F)cccc1F)CC2
- % Inhibition: 45%

Compound: CN(CC#N)C(=O)c1ccc(Br)cc1Br
- % Inhibition: -12%

Compound: CCOc1cc(-c2cc(-c3ccccc3O)nc3ccc4ccccc4c23)cc(Br)c1O
- % Inhibition: 91%

Compound: CCc1nnc(-n2nc(C)cc2C)n1N1C(n2nnc3ccccc32)CCCC1n1nnc2ccccc21 (configuration not stated)
- % Inhibition: -3%

Compound: CC(C)c1cc(=O)[nH]c(-n2nc(C3CC3)cc2NC(=O)COc2ccc3ccccc3c2)n1
- % Inhibition: 70%
